# This is one part of the list.
# Legend:
# Assay in all cases: glycan array binding signal (z-score within array); higher = stronger binding
# Settings in all cases: glycan notation: IUPAC condensed, linker removed
# [1] = molecular target: Neu5Ac(a2-3)Gal(b1-4)[Fuc(a1-3)]GlcNAc(b1-6)[Neu5Ac(a2-3)Gal(b1-3)]GalNAc
# Summary of the method: (§1)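 From the Consortium for Functional Glycomics database, 3228 arrays were curated, keeping only those whose protein sequence was available. Binding is given as a within-array Z-score averaged across arrays sharing a protein sequence and across linkers. Negative Z-scores can be read as non-binding.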
# [2] = molecular target: Neu5Ac(a2-3)Gal(b1-4)[Fuc(a1-3)]GlcNAc6S
# Summary of the method: as §1
# [3] = molecular target: Neu5Ac(a2-3)Gal6S(b1-4)GlcNAc
# Summary of the method: as §1
# [4] = molecular target: Neu5Ac(a2-3)Gal6S(b1-4)[Fuc(a1-3)]GlcNAc
# Summary of the method: as §1
# [5] = molecular target: Neu5Ac(a2-3)GalNAc
# Summary of the method: as §1
# [6] = molecular target: Neu5Ac(a2-3)GalNAc(b1-4)GlcNAc
# Summary of the method: as §1
# [7] = molecular target: Neu5Ac(a2-3)[GalNAc(b1-4)]Gal(b1-4)Glc
# Summary of the method: as §1
# [8] = molecular target: Neu5Ac(a2-3)[GalNAc(b1-4)]Gal(b1-4)GlcNAc
# Summary of the method: as §1
# [9] = molecular target: Neu5Ac(a2-3)[GalNAc(b1-4)]Gal(b1-4)GlcNAc(b1-3)GalNAc
# Summary of the method: as §1
# [10] = molecular target: Neu5Ac(a2-3)[Neu5Ac(a2-6)]GalNAc
# Summary of the method: as §1
# [11] = molecular target: Neu5Ac(a2-6)Gal
# Summary of the method: as §1
# [12] = molecular target: Neu5Ac(a2-6)Gal(b1-3)GlcNAc(b1-3)[Gal(b1-4)GlcNAc(b1-6)]Gal(b1-4)Glc
# Summary of the method: as §1
# [13] = molecular target: Neu5Ac(a2-6)Gal(b1-4)Glc
# Summary of the method: as §1
# [14] = molecular target: Neu5Ac(a2-6)Gal(b1-4)GlcNAc
# Summary of the method: as §1
# [15] = molecular target: Neu5Ac(a2-6)Gal(b1-4)GlcNAc(b1-2)Man
# Summary of the method: as §1
# [16] = molecular target: Neu5Ac(a2-6)Gal(b1-4)GlcNAc(b1-2)Man(a1-3)Man(b1-4)GlcNAc(b1-4)GlcNAc
# Summary of the method: as §1
# [17] = molecular target: Neu5Ac(a2-6)Gal(b1-4)GlcNAc(b1-2)Man(a1-3)[Gal(b1-4)GlcNAc(b1-2)Man(a1-6)]Man(b1-4)GlcNAc(b1-4)GlcNAc
# Summary of the method: as §1
# [18] = molecular target: Neu5Ac(a2-6)Gal(b1-4)GlcNAc(b1-2)Man(a1-3)[GlcNAc(b1-2)Man(a1-6)]Man(b1-4)GlcNAc(b1-4)GlcNAc
# Summary of the method: as §1
# [19] = molecular target: Neu5Ac(a2-6)Gal(b1-4)GlcNAc(b1-2)Man(a1-3)[GlcNAc(b1-2)Man(b1-4)GlcNAc(b1-2)Man(a1-6)]Man(b1-4)GlcNAc(b1-4)GlcNAc
# Summary of the method: as §1
# [20] = molecular target: Neu5Ac(a2-6)Gal(b1-4)GlcNAc(b1-2)Man(a1-3)[GlcNAc(b1-4)][Neu5Ac(a2-6)Gal(b1-4)GlcNAc(b1-2)Man(a1-6)]Man(b1-4)GlcNAc(b1-4)GlcNAc
# Summary of the method: as §1
# [21] = molecular target: Neu5Ac(a2-6)Gal(b1-4)GlcNAc(b1-2)Man(a1-3)[Man(a1-6)]Man(b1-4)GlcNAc(b1-4)GlcNAc
# Summary of the method: as §1
# [22] = molecular target: Neu5Ac(a2-6)Gal(b1-4)GlcNAc(b1-2)Man(a1-3)[Neu5Ac(a2-3)Gal(b1-4)GlcNAc(b1-2)Man(a1-6)]Man(b1-4)GlcNAc(b1-4)GlcNAc
# Summary of the method: as §1
# [23] = molecular target: Neu5Ac(a2-6)Gal(b1-4)GlcNAc(b1-2)Man(a1-3)[Neu5Ac(a2-6)Gal(b1-4)GlcNAc(b1-2)Man(a1-6)]Man(b1-4)GlcNAc(b1-4)GlcNAc
# Summary of the method: as §1
# [24] = molecular target: Neu5Ac(a2-6)Gal(b1-4)GlcNAc(b1-2)Man(a1-3)[Neu5Ac(a2-6)Gal(b1-4)GlcNAc(b1-2)Man(a1-6)]Man(b1-4)GlcNAc(b1-4)[Fuc(a1-6)]GlcNAc
# Summary of the method: as §1
# [25] = molecular target: Neu5Ac(a2-6)Gal(b1-4)GlcNAc(b1-2)Man(a1-6)Man(b1-4)GlcNAc(b1-4)GlcNAc
# Summary of the method: as §1
# [26] = molecular target: Neu5Ac(a2-6)Gal(b1-4)GlcNAc(b1-2)Man(a1-6)[Gal(b1-4)GlcNAc(b1-2)Man(a1-3)]Man(b1-4)GlcNAc(b1-4)GlcNAc
# Summary of the method: as §1
# [27] = molecular target: Neu5Ac(a2-6)Gal(b1-4)GlcNAc(b1-2)Man(a1-6)[GlcNAc(b1-2)Man(a1-3)]Man(b1-4)GlcNAc(b1-4)GlcNAc
# Summary of the method: as §1
binder,measurement,setting,value
"Gal 4 (Mus musculus), P56470 (protein) MAYVPAPGYQPTYNPTLPYYQPIPGGLNVGMSVYIQGVASEHMKRFFVNFVVGQDPGSDVAFHFNPRFDGWDKVVFNTLQGGKWGSEERKRSMPFKKGAAFELVFIVLAEHYKVVVNGNPFYEYGHRLPLQMVTHLQVDGDLQLQSINFIGGQPLRPQGPPMMPPYPGPGHCHQQLNSLPTMEGPPTFNPPVPYFGRLQGGLTARRTIIIKGYVPPTGKSFAINFKVGSSGDIALHINPRMGNGTVVRNSLLNGSWGSEEKKITHNPFGPGQFFDLSIRCGLDRFKVYANGQHLFDFAHRLSAFQRVDTLEIQGDVTLSYVQI",glycan array binding signal (z-score),[1],-0.185
same,glycan array binding signal (z-score),[2],-0.226
same,glycan array binding signal (z-score),[3],-0.224
same,glycan array binding signal (z-score),[4],-0.242
same,glycan array binding signal (z-score),[5],-0.225
same,glycan array binding signal (z-score),[6],-0.227
same,glycan array binding signal (z-score),[7],-0.229
same,glycan array binding signal (z-score),[8],-0.234
same,glycan array binding signal (z-score),[9],-0.197
same,glycan array binding signal (z-score),[10],-0.218
same,glycan array binding signal (z-score),[11],-0.219
same,glycan array binding signal (z-score),[12],-0.226
same,glycan array binding signal (z-score),[13],-0.211
same,glycan array binding signal (z-score),[14],-0.231
same,glycan array binding signal (z-score),[15],-0.318
same,glycan array binding signal (z-score),[16],-0.214
same,glycan array binding signal (z-score),[17],-0.202
same,glycan array binding signal (z-score),[18],-0.244
same,glycan array binding signal (z-score),[19],-0.209
same,glycan array binding signal (z-score),[20],-0.295
same,glycan array binding signal (z-score),[21],-0.235
same,glycan array binding signal (z-score),[22],-0.377
same,glycan array binding signal (z-score),[23],-0.226
same,glycan array binding signal (z-score),[24],-0.261
same,glycan array binding signal (z-score),[25],-0.225
same,glycan array binding signal (z-score),[26],-0.196
same,glycan array binding signal (z-score),[27],-0.222
